Experimental data taken from the supplement of paper PMC11417369.
The other results are listed elsewhere or left out.

The sequences below were run on PfHDP1 homeodomain (GST-tagged) (assay: gcPBM binding intensity (ln(normalized median fluorescence intensity)); higher = stronger DNA binding).
Method in brief: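 An Agilent 4 × 180k array carrying primer-extended double-stranded 36-bp intergenic genomic probes and negative controls received GST-tagged P. falciparum DNA-binding domains expressed in E. coli, about 25 μg on average, for 1 h. The binding buffer contained 1× PBS, 1% milk, 0.2 mg/ml BSA, 0.5% salmon testes DNA and 0.03% Triton X-100. Binding intensity is the top Masliner-normalised natural-log median intensity across replicate spots of either probe orientation, read after Alexa488 anti-GST antibody staining and a 488 nm scan.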

Sequence | gcPBM binding intensity (ln)
TATATATTTGTTCACACACACACAAAAAAAAAAAAA [CACACA_site2475] | 6.58
GTCATCAAGTATTAAGTGCATTAAAAATAAAATATA | 9.4
CATATATATATATATATATATATATTTATTTATTTA [TGCATGCA_negctrl_site165] | 7.57
TCCCTTAAAATGATATGTACATAAAAATAAAAAAAA [XGTACX_site836] | 6.72
TAAATATTATAAATGATACACACTTAAAATACTCAC [CACACA_site2710] | 6.43
TATAAATTTAAAATGACACACACTAAAGTTATTTAA [CACACA_site6700] | 5.98
AACATAAGTAAGAATACATGCGGAAATTATATAGAA [TGCATGCA_site112] | 6.99
CATACACATACACATACACACGCATAGAAACATACG [CACACA_site8666] | 8.09
AATTTTTCATCAAGTTGTACAATTATTTGTTTGTTT [XGTACX_site3113] | 6.63
AAATTCAGGTTATATTTTAATTTTTTTTTGTTTTTT [CACACA_negctrl_site924] | 6
CAATATTTTTTATAGGGTACAAAAGATAAAAAAAAA [XGTACX_site6298] | 6.8
AAAACAATAATATACTGTACATATATATAATAACAT [XGTACX_site6188] | 6.75
AAAATTTTCTTTTTATGTACACATAATTTTACCGGA [XGTACX_site5276] | 6.61
CATATTTGGAAACACACACACATATTTATATATATA [CACACA_site3569] | 7.32
AAAAGAAAAAGAAAAACACACATAAATATAAATATA [CACACA_site1879] | 6.32
TATATTTTACTCTTCACACATATACTCAATTTATAT [CACACA_site5357] | 7.08
GTAATATGTATCCATACACACATACATTTTATTTGC [CACACA_site4640] | 6.7
TCACATATGTTCCATTGTACTTGTAGTAATTTTTTC [XGTACX_site6473] | 6.5
ATAAAATGAAATATATGTACGCATCACTTGTTGAAC [XGTACX_site4530] | 6.54

Sequence | gcPBM binding intensity (ln)
AGAAAAGGACATATATGTACTTATCAATATAGAAAC [XGTACX_site1042] | 6.5
AAAAAAAAAAAAAAAACATGCAAAATAATATATATA [TGCATGCA_site68] | 6.8
GTACATACATAAAACACACACATATATATATATATA [CACACA_site1826] | 9.31
TGCTAATAATTATTTGTTTAGCAACAAAAAAAAAAA [CACACA_negctrl_site1541] | 6.06
TAATTAAAAAATAAAAAAAAAAAAAATTAAAACAAA [CACACA_negctrl_site500] | 6.08
TTCTTTTTAATTTATTTTTTCTTATAACAAGAAAAC [CACACA_negctrl_site201] | 6.74
CATACACGCGGACACACACACACACGCATATATAAC [CACACA_site6427] | 7.14
ACATATATATATATATAAATATATATGTATGTATTT [XGTACX_negctrl_site237] | 6.52
ATTATATTTGAATGGTGTACTATAATAATGTAGTTT [XGTACX_site8069] | 6.45
GAATAAATTAAATTCACACATAAAATACAAAATACA [CACACA_site5495] | 6.86
CTTATATTAATTATTACACACATATATATAAATGCA [CACACA_site770] | 6.79
AAAGAAAATAGGTGTACACATAATAAATACAGCTAT [CACACA_site5917] | 7.25
AAAATAATATTTAATACACACATAATTACAATATAA [CACACA_site6510] | 6.52
TTATTACGAACTCTGCAACATATATAAATAAATAAA [CACACA_negctrl_site44] | 6.86
TACGTATTCATGTATAGTACTCTTTTTTTTAATAAA [XGTACX_site3299] | 6.19
ACAAGTGTATATGTTATATATATATATATATATATA [CACACA_negctrl_site1686] | 9.41
AAAGATAAAATATATACACACACATAAATACGTACA [CACACA_site8275] | 6.96
ATTTATATTTTATATACACACATGAACTTATATGGA [CACACA_site3167] | 6.54
GAATATAAAAGGAACGGTACAGAAAAAAAAAAAAAA [XGTACX_site3917] | 6.41

Sequence | gcPBM binding intensity (ln)
TTTATTTTTTATATATCACTTAAAAAAAAAAAAAAA [CACACA_negctrl_site249] | 6.3
ATGTAATATATTATATGTACATATTTTTATGTAGAT [XGTACX_site5945] | 6.67
CTTTTTTTTTTATGCACACACAATTATACATTCCTT [CACACA_site3877] | 10.6
ATAACCTAATAATACACACACATGAATATATATAAT [CACACA_site4689] | 7.17
AATATAGTCTCACATACACACATATATATTTATATA [CACACA_site2503] | 6.9
AAAACAAATAAGTAAACACACATATATAATATATAT [CACACA_site2586] | 6.7
AAAAAAAAAAAAACTAGTACATATATATAGTATGAA [XGTACX_site6279] | 6.33
CCATGATTATTAGATTGTACATAACATACAAATTGA [XGTACX_site314] | 6.39
AATGTGCAGAAAAGTGGTACATATGATTGTTAAGAG [XGTACX_site1038] | 7.58
AATATATTTTTTTTTGGTACACAAGCACATCTATAC [XGTACX_site2183] | 6.76
TTTCGATTATGTTTTTGTACGCAATATATTAATTCT [XGTACX_site3634] | 6.51
TACCTTTTTTATGTTGCACACTGGGATGTTTTCTAA [CACACA_site1653] | 9.42
ATTCATATTTTTCAAGTGCGCATTAAAATATTAACC [GTGCAC_site9741] | 8.58
ATGTCATATATATGTTGTACGAGTTTGTTTATGTAT [XGTACX_site1150] | 6.97
TTCATTTTATAAAAAGCACACATATAGTTATATGCA [CACACA_site9228] | 6.45
AGTTTACATTAAATCACGCACACAAAAAAAAAAAAA [CACACA_site2419] | 6.48
TGCACATTTATGTAACGTACAAAATATAATATGTTA [XGTACX_site8255] | 6.51
GTATAAAAGTAATGTAGTACTTATATATTTTTATTT [XGTACX_site8975] | 6
